# Laboratory results: the supplement of paper PMC8728848
# Some of the results follow.
# B1: rAAL-I144G (Agrocybe aegerita), Q6WY08 (protein)
# chain: MQGVNIYNISAGTSVDLAAPVTTGDIVTFFSSALNLNAGAGNPNNTTLNLFAENGAYLLHIAFRLQENVIIFNSRQPDGPWLVEQRVSDVANQFAGIDGKAMVTVFDHGDKYQVVINEKTVIQYTKQISGLTLSLSYNATEETSGFSTVVEAVTYTGLALEHHHHHH
# What was measured:
# Assay in all cases: glycan array binding signal (z-score within array); higher = stronger binding
# Conditions in all cases: glycan notation: IUPAC condensed, linker removed; mutation: I144G
# [1] = target: Fuc(a1-2)Gal
# Outline: (§1)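 Arrays were curated from the Consortium for Functional Glycomics database, 3228 in total, and kept only where the protein sequence was available. Binding is expressed as a within-array Z-score. This score was averaged across arrays of the same protein sequence at different concentrations or buffers and across linkers, and negative values can be read as non-binding.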
# [2] = target: Fuc(a1-2)Gal(b1-3)GalNAc
# Outline: as §1
# [3] = target: Fuc(a1-2)Gal(b1-3)GalNAc(a1-3)[Fuc(a1-2)]Gal(b1-4)Glc
# Outline: as §1
# [4] = target: Fuc(a1-2)Gal(b1-3)GalNAc(a1-3)[Fuc(a1-2)]Gal(b1-4)GlcNAc
# Outline: as §1
# [5] = target: Fuc(a1-2)Gal(b1-3)GalNAc(b1-3)Gal
# Outline: as §1
# [6] = target: Fuc(a1-2)Gal(b1-3)GalNAc(b1-3)Gal(a1-4)Gal(b1-4)Glc
# Outline: as §1
# [7] = target: Fuc(a1-2)Gal(b1-3)GalNAc(b1-4)[Neu5Ac(a2-3)]Gal(b1-4)Glc
# Outline: as §1
# [8] = target: Fuc(a1-2)Gal(b1-3)GlcNAc
# Outline: as §1
# [9] = target: Fuc(a1-2)Gal(b1-3)GlcNAc(b1-2)Man(a1-3)[Fuc(a1-2)Gal(b1-3)GlcNAc(b1-2)Man(a1-6)]Man(b1-4)GlcNAc(b1-4)GlcNAc
# Outline: as §1
# [10] = target: Fuc(a1-2)Gal(b1-3)GlcNAc(b1-2)Man(a1-3)[Fuc(a1-2)Gal(b1-3)GlcNAc(b1-2)Man(a1-6)]Man(b1-4)GlcNAc(b1-4)[Fuc(a1-6)]GlcNAc
# Outline: as §1
# [11] = target: Fuc(a1-2)Gal(b1-3)GlcNAc(b1-3)Gal(b1-4)Glc
# Outline: as §1
# [12] = target: Fuc(a1-2)Gal(b1-3)GlcNAc(b1-3)GalNAc
# Outline: as §1
# [13] = target: Fuc(a1-2)Gal(b1-3)GlcNAc(b1-3)[Fuc(a1-2)Gal(b1-3)GlcNAc(b1-6)]GalNAc
# Outline: as §1
# [14] = target: Fuc(a1-2)Gal(b1-3)GlcNAc(b1-3)[Gal(b1-4)GlcNAc(b1-6)]Gal(b1-4)Glc
# Outline: as §1
# [15] = target: Fuc(a1-2)Gal(b1-3)GlcNAc(b1-3)[Neu5Ac(a2-6)Gal(b1-4)GlcNAc(b1-6)]Gal(b1-4)Glc
# Outline: as §1
# [16] = target: Fuc(a1-2)Gal(b1-3)GlcNAc6S
# Outline: as §1
# [17] = target: Fuc(a1-2)Gal(b1-3)[Fuc(a1-4)]GlcNAc
# Outline: as §1
# [18] = target: Fuc(a1-2)Gal(b1-3)[Fuc(a1-4)]GlcNAc(b1-2)Man(a1-3)[Fuc(a1-2)Gal(b1-3)[Fuc(a1-4)]GlcNAc(b1-2)Man(a1-3)]Man(b1-4)GlcNAc(b1-4)GlcNAc
# Outline: as §1
# [19] = target: Fuc(a1-2)Gal(b1-3)[Fuc(a1-4)]GlcNAc(b1-2)Man(a1-3)[Fuc(a1-2)Gal(b1-3)[Fuc(a1-4)]GlcNAc(b1-2)Man(a1-6)]Man(b1-4)GlcNAc(b1-4)[Fuc(a1-6)]GlcNAc(b1-4)[Fuc(a1-6)]GlcNAc
# Outline: as §1
# [20] = target: Fuc(a1-2)Gal(b1-3)[Fuc(a1-4)]GlcNAc(b1-3)[Fuc(a1-3)[Gal(b1-4)]GlcNAc(b1-6)]Gal(b1-4)Glc
# Outline: as §1
# [21] = target: Fuc(a1-2)Gal(b1-3)[Fuc(a1-4)]GlcNAc(b1-3)[Gal(b1-4)GlcNAc(b1-6)]Gal(b1-4)Glc
# Outline: as §1
# [22] = target: Fuc(a1-2)Gal(b1-4)Fuc(a1-3)]GlcNAc(b1-2)Man(a1-3)[Fuc(a1-2)Gal(b1-4)[Fuc(a1-3)]GlcNAc(b1-2)Man(a1-6)]Man(b1-4)GlcNAc(b1-4)GlcNAc
# Outline: as §1
# [23] = target: Fuc(a1-2)Gal(b1-4)Glc
# Outline: as §1
# [24] = target: Fuc(a1-2)Gal(b1-4)Glc6S
# Outline: as §1
# [25] = target: Fuc(a1-2)Gal(b1-4)GlcNAc
# Outline: as §1
# [26] = target: Fuc(a1-2)Gal(b1-4)GlcNAc(b1-2)Man
# Outline: as §1
# [27] = target: Fuc(a1-2)Gal(b1-4)GlcNAc(b1-2)Man(a1-3)[Fuc(a1-2)Gal(b1-4)GlcNAc(b1-2)Man(a1-6)]Man(b1-4)GlcNAc(b1-4)GlcNAc
# Outline: as §1
# [28] = target: Fuc(a1-2)Gal(b1-4)GlcNAc(b1-2)Man(a1-3)[Fuc(a1-2)Gal(b1-4)GlcNAc(b1-2)Man(a1-6)]Man(b1-4)GlcNAc(b1-4)[Fuc(a1-6)]GlcNAc
# Outline: as §1
# [29] = target: Fuc(a1-2)Gal(b1-4)GlcNAc(b1-2)[Fuc(a1-2)Gal(b1-4)GlcNAc(b1-4)]Man(a1-3)[Fuc(a1-2)Gal(b1-4)GlcNAc(b1-2)Man(a1-6)]Man(b1-4)GlcNAc(b1-4)GlcNAc
# Outline: as §1
# [30] = target: Fuc(a1-2)Gal(b1-4)GlcNAc(b1-3)Gal(b1-4)GlcNAc
# Outline: as §1
# [31] = target: Fuc(a1-2)Gal(b1-4)GlcNAc(b1-3)Gal(b1-4)GlcNAc(b1-2)Man(a1-3)[Fuc(a1-2)Gal(b1-4)GlcNAc(b1-3)Gal(b1-4)GlcNAc(b1-2)Man(a1-6)]Man(b1-4)GlcNAc(b1-4)GlcNAc
# Outline: as §1
# [32] = target: Fuc(a1-2)Gal(b1-4)GlcNAc(b1-3)Gal(b1-4)GlcNAc(b1-3)Gal(b1-4)GlcNAc
# Outline: as §1
# [33] = target: Fuc(a1-2)Gal(b1-4)GlcNAc(b1-3)GalNAc
# Outline: as §1
# [34] = target: Fuc(a1-2)Gal(b1-4)GlcNAc(b1-3)[Fuc(a1-2)Gal(b1-4)GlcNAc(b1-6)]GalNAc
# Outline: as §1
# [35] = target: Fuc(a1-2)Gal(b1-4)GlcNAc(b1-3)[Fuc(a1-3)[Gal(b1-4)]GlcNAc(b1-6)]Gal(b1-4)Glc
# Outline: as §1
# [36] = target: Fuc(a1-2)Gal(b1-4)GlcNAc(b1-6)GalNAc
# Outline: as §1
# [37] = target: Fuc(a1-2)Gal(b1-4)GlcNAc6S
# Outline: as §1
# [38] = target: Fuc(a1-2)Gal(b1-4)[Fuc(a1-3)]GlcNAc
# Outline: as §1
# [39] = target: Fuc(a1-2)Gal(b1-4)[Fuc(a1-3)]GlcNAc(b1-2)Man(a1-3)[Fuc(a1-2)Gal(b1-4)[Fuc(a1-3)]GlcNAc(b1-2)Man(a1-6)]Man(b1-4)GlcNAc(b1-4)[Fuc(a1-6)]GlcNAc
# Outline: as §1
# [40] = target: Fuc(a1-2)Gal(b1-4)[Fuc(a1-3)]GlcNAc(b1-2)[Fuc(a1-2)Gal(b1-4)[Fuc(a1-3)]GlcNAc(b1-4)]Man(a1-3)[Fuc(a1-2)Gal(b1-4)[Fuc(a1-3)]GlcNAc(b1-2)Man(a1-6)]Man(b1-4)GlcNAc(b1-4)GlcNAc
# Outline: as §1
# [41] = target: Fuc(a1-2)Gal(b1-4)[Fuc(a1-3)]GlcNAc(b1-3)Gal(b1-4)[Fuc(a1-3)]GlcNAc
# Outline: as §1
# [42] = target: Fuc(a1-2)Gal(b1-4)[Fuc(a1-3)]GlcNAc(b1-3)Gal(b1-4)[Fuc(a1-3)]GlcNAc(b1-3)Gal(b1-4)[Fuc(a1-3)]GlcNAc
# Outline: as §1
# [43] = target: Fuc(a1-2)Gal(b1-4)[Fuc(a1-3)]GlcNAc(b1-3)GalNAc
# Outline: as §1
# [44] = target: Fuc(a1-2)Gal(b1-4)[Fuc(a1-3)]GlcNAc(b1-3)[Neu5Ac(a2-6)Gal(b1-4)GlcNAc(b1-6)]Gal(b1-4)Glc
# Outline: as §1
# [45] = target: Fuc(a1-2)Gal3S(b1-4)GlcNAc
# Outline: as §1
binder,measurement,setting,value
B1,glycan array binding signal (z-score),[1],-0.104
same,glycan array binding signal (z-score),[2],-0.116
same,glycan array binding signal (z-score),[3],-0.171
same,glycan array binding signal (z-score),[4],-0.189
same,glycan array binding signal (z-score),[5],-0.131
same,glycan array binding signal (z-score),[6],-0.112
same,glycan array binding signal (z-score),[7],-0.095
same,glycan array binding signal (z-score),[8],-0.126
same,glycan array binding signal (z-score),[9],-0.006
same,glycan array binding signal (z-score),[10],-0.129
same,glycan array binding signal (z-score),[11],-0.144
same,glycan array binding signal (z-score),[12],-0.196
same,glycan array binding signal (z-score),[13],-0.208
same,glycan array binding signal (z-score),[14],-0.161
same,glycan array binding signal (z-score),[15],-0.125
same,glycan array binding signal (z-score),[16],-0.115
same,glycan array binding signal (z-score),[17],-0.109
same,glycan array binding signal (z-score),[18],-0.138
same,glycan array binding signal (z-score),[19],-0.086
same,glycan array binding signal (z-score),[20],-0.125
same,glycan array binding signal (z-score),[21],-0.151
same,glycan array binding signal (z-score),[22],0.088
same,glycan array binding signal (z-score),[23],-0.192
same,glycan array binding signal (z-score),[24],-0.183
same,glycan array binding signal (z-score),[25],-0.107
same,glycan array binding signal (z-score),[26],-0.189
same,glycan array binding signal (z-score),[27],-0.063
same,glycan array binding signal (z-score),[28],-0.097
same,glycan array binding signal (z-score),[29],-0.131
same,glycan array binding signal (z-score),[30],-0.067
same,glycan array binding signal (z-score),[31],-0.187
same,glycan array binding signal (z-score),[32],-0.145
same,glycan array binding signal (z-score),[33],-0.078
same,glycan array binding signal (z-score),[34],-0.077
same,glycan array binding signal (z-score),[35],-0.047
same,glycan array binding signal (z-score),[36],-0.061
same,glycan array binding signal (z-score),[37],-0.109
same,glycan array binding signal (z-score),[38],-0.056
same,glycan array binding signal (z-score),[39],-0.117
same,glycan array binding signal (z-score),[40],0.078
same,glycan array binding signal (z-score),[41],-0.039
same,glycan array binding signal (z-score),[42],-0.144
same,glycan array binding signal (z-score),[43],-0.124
same,glycan array binding signal (z-score),[44],-0.075
same,glycan array binding signal (z-score),[45],-0.067
